The values that follow come from the RNAGym collection of RNA variant scans (doi:10.1093/nar/gkz1192).

B1: CPEB3 Ribozyme (parent)
chain: UAACAGGGGGCCACAGCAGAAGCGUUCACGUCGCAGCCCCUGUCAGAUUCUGGUGAAUCUGCGAAUUCUGCUGUAUAUCUC

Read counts are not given, so values of variants with three or more changes are uncertain.

In the data set the parent is B1. Put plainly: self-cleavage, relative activity (ratio to wild type); higher = more cleavage; in vitro, sequencing. An outline of the steps:
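Relative activity was defined as the cleaved/total read fraction for a variant divided by the same fraction for the unmutated ribozyme. CPEB3 self-cleaving ribozyme libraries were made by rounds of error-prone PCR, barcoded, and transcribed in vitro with T7 RNA polymerase for 5 hours at 37°C, and cleavage ran through transcription plus a 15 min DNase I step before EDTA. Illumina sequencing of template-switched reverse transcripts gave the reads, and DNA sequencing mapped the barcodes. Averages come from three batches, using variants with at least 5 reads.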
Regarding UAACAGGGGGCCACAGCAGAAGCGUUCACGUCGCAGCCCUCGUCAGAUUCUGGUGAAUCUGCGAACUCUGCAGUAUAUCCC [C40U U41C U66C U72A U80C], the self-cleavage was 0.41.

Take UAACAGGGGGCCACAGCAGAAGCGUUCACGUCGCAGCCUCAGACAGAUUCUGGCGAAUCUGCGAAUUCUACUGUAUAUCUC [C39U U41A U43A U54C G70A]: the self-cleavage came to 0.06.

UAACAGGGGGCCACAGCAGAAGCGUUCACGUCGCAGCCCCAGUCAGAUUCUGGUGAUUCUGCGAAUUCUGCAGUAUAUCUC [U41A A57U U72A]: the self-cleavage amounted to 0.44.

For the variant UAACAGGGGGCCACAGCAGAAGCGUUCACGUCGCAGCCCAAGUCAGUUUCUGGUGAAUCUGCGAAUUCUGCCGUAUAUCUC [C40A U41A A47U U72C], the self-cleavage was 0.04.

Take UAACAGGGGGCCACAGCAGAAGCGUUCACGUCGCAGCCCUUGACAGAUUCUGGUGAAUCUGCUAGUUCUGCUGUAUAUCUC [C40U U43A G63U A65G]: the self-cleavage came to 0.34.

As for UAACAGGGGGCCACAGCAGAAGCGUUCACGUCGCAGCCCUUGUCAGAUUCCGGUGAGUCUGCGAAUUCUGCUGUAUAUCUC [C40U U51C A57G], the self-cleavage was 0.39.

Regarding UAACAGGGGGCCACAGCAGAAGCGUUCACGUCGCAGCCCUUGUCAGAUUCUAGUGAAUCUGCGAAUUCUGCUGUAUAACUC [C40U G52A U78A], the self-cleavage came out at 0.88.

Turning to UAACAGGGGGCCACAGCAGAAGCGUUCACGUCGCAGCCGCUGUCAGAUUCUGGUGAAUCAGCGAAUACCGUUGUGUAUCUC [C39G U60A U67A U69C C71U A75G], the self-cleavage was 0.

For UAACAGGGGGCCACAGCAGAAGCGUUCACGUCGCAGCCCCAGUCAGAUUCUGGUGAGUCUGCGAACUCUGCUGUAUAUCUC [U41A A57G U66C], the self-cleavage is 0.14.

Take UAACAGGGGGCCACAGCAGAAGCGUUCACGUCGCAGCCCCAGUCAGAUUCUGGUGAAUCUGCGGAUUCUGCUGUAUAUCCC [U41A A64G U80C]: the self-cleavage turned out to be 0.25.

As for UAACAGGGGGCCACAGCAGAAGCGUUCACGUCGCAGCCCAUGCCAGAUUCUGGUGAAUCUGCGAAUUCUGCUGUAUAUCCC [C40A U43C U80C], the self-cleavage is 0.12.

For UAACAGGGGGCCACAGCAGAAGCGUUCACGUCGCAGCCCUCGUCAGAUCCUAGCGAAUCUGCGAAUUCUGCUGUAUAUCUC [C40U U41C U49C G52A U54C], the self-cleavage was found to be 0.69.

On to UAACAGGGGGCCACAGCAGAAGCGUUCACGUCGCAGCCCAUGUCAGAUUCUGGUGAAUCUGCGAAUUCUGCCGUGUAUCUC [C40A U72C A75G], for which the self-cleavage amounted to 0.1.

As to UAACAGGGGGCCACAGCAGAAGCGUUCACGUCGCAGCCUCUGUCAGAUUCUGGUGAACCUGCGAAGUCUGCUGUAUAUCUC [C39U U58C U66G], the self-cleavage was found to be 0.13.

For UAACAGGGGGCCACAGCAGAAGCGUUCACGUCGCAGCCACUGUCAGAUUCUGGUGAAUCUGCGAAUCCUGCUGCAUAUCUC [C39A U67C U74C], the self-cleavage was 0.08.

Turning to UAACAGGGGGCCACAGCAGAAGCGUUCACGUCGCAGCCCGAGUCAGAUUCUGGUGAAUCUGCGAAUUCUGCUGUAUAUCAC [C40G U41A U80A], the self-cleavage was 0.42.

For the variant UAACAGGGGGCCACAGCAGAAGCGUUCACGUCGCAGCCCACGUCAGAUCCUGGUGAAUCAGCGAAUUCUGCUGUAUAUCUC [C40A U41C U49C U60A], the self-cleavage is 0.18.

As to UAACAGGGGGCCACAGCAGAAGCGUUCACGUCGCAGCCCAUGUCAGAUUCUGGUGAACCUGCGAAUUCUGCUGCAUAUCUC [C40A U58C U74C], the self-cleavage stood at 0.24.

Consider UAACAGGGGGCCACAGCAGAAGCGUUCACGUCGCAGCCUCUGUCGGAUUCUGGUGAAUCUGCGAAUUCUGCAGUAUAUCUC [C39U A45G U72A], for which the self-cleavage is 0.67.

For the variant UAACAGGGGGCCACAGCAGAAGCGUUCACGUCGCAGCCCAUUUCGGAUUCUGGUGAAUCUGCGAAUUCUGCUGUAUAUCUC [C40A G42U A45G], the self-cleavage is 0.09.

In the case of UAACAGGGGGCCACAGCAGAAGCGUUCACGUCGCAGCCCCAGUCAGAUUCUGGUGAAUCUGCGUACUCUGCUGUAUAUCUC [U41A A64U U66C], the self-cleavage stood at 0.13.

UAACAGGGGGCCACAGCAGAAGCGUUCACGUCGCAGCCCUUGACAGAUUCUGGUGCAUCUGCGAAUUCUGCUGUAUAUCUC [C40U U43A A56C]: the self-cleavage is 0.35.

As to UAACAGGGGGCCACAGCAGAAGCGUUCACGUCGCAGCCCUUGUCAGAUUCUGGUGAGUCUGCGAAUUCUGCUGUAUAUCAC [C40U A57G U80A], the self-cleavage was 0.6.

Consider UAACAGGGGGCCACAGCAGAAGCGUUCACGUCGCAGCCCUUGACAGAUUCUGGUGAAUCUGCGAGUUCUGCUGUAUAUCUC [C40U U43A A65G], for which the self-cleavage was determined as 0.2.

Take UAACAGGGGGCCACAGCAGAAGCGUUCACGUCGCAGCCCUUGUCUGAUUCAGGUGAAUCUGCGAAUUCUGCUGUAUACCUC [C40U A45U U51A U78C]: the self-cleavage worked out at 0.08.

UAACAGGGGGCCACAGCAGAAGCGUUCACGUCGCAGCCCCAGUCAGAUUCUGGUGAGUCUGCGAUUUCUGCUGUAUAUCUC [U41A A57G A65U]: the self-cleavage is 0.11.

Consider UAACAGGGGGCCACAGCAGAAGCGUUCACGUCGCAGCCUCUGUCAGAUUCUGGUGAAUCUGCGAAUUCUGCGGUAUACCUC [C39U U72G U78C], for which the self-cleavage worked out at 1.2.

Regarding UAACAGGGGGCCACAGCAGAAGCGUUCACGUCGCAGCCCCAGUCAGAUUCUGGUGAAUCUGCGGAUUCUGCUGUACAUCUC [U41A A64G U76C], the self-cleavage was determined as 0.1.

For the variant UAACAGGGGGCCACAGCAGAAGCGUUCACGUCGCAGCCCCAGUCAGGUUCUGGUGAAUCUGCGAAUUCUGCUGUAUACCUC [U41A A47G U78C], the self-cleavage was 0.11.

Take UAACAGGGGGCCACAGCAGAAGCGUUCACGUCGCAGCCCUUGUCAUAUUCUGGUGAAUCUGCGUAUUCUGCUGUAUAUCUC [C40U G46U A64U]: the self-cleavage is 0.06.

As for UAACAGGGGGCCACAGCAGAAGCGUUCACGUCGCAGCCCUUGUCAGACUCAGGUGAAUCUCCGAAUUCCGCUGUAUAUCUC [C40U U48C U51A G61C U69C], the self-cleavage was 0.27.

For UAACAGGGGGCCACAGCAGAAGCGUUCACGUCGCAGCCCCAGUCAGAUUCUGGUGAGUCCGCGAAUUCUGCUGUAUACCUC [U41A A57G U60C U78C], the self-cleavage is 0.11.

With UAACAGGGGGCCACAGCAGAAGCGUUCACGUCGCAGCCUCUGUCAGAUUCUGGUGAACCUGCGAAUUCUGCCGUAUAUCUC [C39U U58C U72C], the self-cleavage stood at 0.69.

UAACAGGGGGCCACAGCAGAAGCGUUCACGUCGCAGCCCCAGUCAGAUUCUGGUGAGUCUGCGAAUUCCGCUGUAUAUCUC [U41A A57G U69C]: the self-cleavage turned out to be 0.11.
